Laboratory results as given in article PMC8249575, “Phosphorylation and O-GlcNAcylation of the PHF-1 Epitope of Tau Protein Induce Local Conformational Changes of the C-Terminus and Modulate Tau Self-Assembly Into Fibrillar Aggregates” (Frontiers in Molecular Neuroscience, 2021).

B1: TauS262A-G (natural protein)
chain: not shown
modifications: O-GlcNAc at S400 (61% ± 2%), S412 (27% ± 1%) and S413 (47% ± 2%); 1.8 ± 0.3 GlcNAc per Tau molecule
notes: Tau, human, Tau2N4R (longest isoform of 441 residues), S262A; also called Tau-G; source: E. coli BL21(DE3), purified; O-GlcNAcylated in vitro by ncOGT, enriched by reverse phase HPLC
B2: TauS262A-P (natural protein)
chain: not shown
modifications: phosphorylated at T153, T175, T181, S199, S202, T205, T212, T231, S235, S396 and S404; 12.3 ± 0.8 phosphate per Tau molecule
notes: Tau, human, Tau2N4R (longest isoform of 441 residues), S262A; also called Tau-P; source: E. coli BL21(DE3), purified; phosphorylated in vitro by CDK2/cyclin A3
B3: TauS262A-PP (natural protein)
chain: not shown
modifications: phosphorylated at T153, T175, T181, S198, S199, S202, T205, S208, T212, T231, S235, S396 (88%), S400 (80%) and S404 (95%); 17.2 ± 0.8 phosphate per Tau molecule
notes: Tau, human, Tau2N4R (longest isoform of 441 residues), S262A; also called Tau-PP; source: E. coli BL21(DE3), purified; phosphorylated in vitro by CDK2/cyclin A3, then by GSK3β
B4: TauS262A-G/P (natural protein)
chain: not shown
modifications: O-GlcNAc at S400, S412 and S413; phosphoserine at S404 (90%) and S396 (15%) and CDK2 sites of the proline-rich domain
notes: Tau, human, Tau2N4R (longest isoform of 441 residues), S262A; also called Tau-G/P; source: E. coli BL21(DE3), purified; O-GlcNAcylated in vitro by ncOGT, then phosphorylated by CDK2/cyclin A3
B5: TauS262A-G/PP (natural protein)
chain: not shown
modifications: O-GlcNAc at S400, S412 and S413; phosphoserine at S404, S400 (ca. 36%) and S396 (ca. 40%) and CDK2/GSK3β sites of the proline-rich domain
notes: Tau, human, Tau2N4R (longest isoform of 441 residues), S262A; also called Tau-G/PP; source: E. coli BL21(DE3), purified; O-GlcNAcylated in vitro by ncOGT, then phosphorylated by CDK2/cyclin A3 and GSK3β
B6: TauS262A (natural protein)
chain: not shown
notes: Tau, human, Tau2N4R (longest isoform of 441 residues), S262A; pET15b NcoI/XhoI cloning removes the polyhistidine tag; Used as monomer and, after 7 days with heparin and sonication, as seeds; also called TauS262A mutant; Tau seeds (as heparin-induced fibrils); source: E. coli BL21(DE3), purified (heating at 80°C, cation exchange)

Biological target: B6
Assay: seeded fibril formation (ThT fluorescence + negative-staining TEM); seeds: TauS262A 10 μM with heparin 2.5 μM for 7 days at 37°C, sonicated, diluted 10-fold in fresh monomeric Tau at 25 μM in 100 mM MES pH 6.9, 2 mM EGTA, 1 mM MgCl2, 20 mM NaF, 1 mM DTT, 100 μM ThT; 5 to 7 days at 37°C; TEM at end-point
Settings: both partners purified

**Q.** Does B1 bind?
**A.** Result: binds

**Q.** Does B2 bind?
**A.** Result: binds

**Q.** Does B3 bind?
**A.** Result: binds

**Q.** Does B4 bind?
**A.** Result: binds

**Q.** Does B5 bind?
**A.** Result: binds

Biological target: the molecule itself
Assay: as above
Settings: not given

**Q.** Does B6 bind?
**A.** Result: binds
